# From publication PMC10668032
# Some of the results follow. At the low end of the ranking the order means little.
# Molecular target: SIX1 homeodomain (reference allele) (UniProt Q15475)
# Assay: universal protein binding microarray
# Conditions: Universal all-10-mer PBM (8x60K, AMADID 030236), 300 nM GST-tagged protein, Alexa Fluor 488 anti-GST; buffer, salt, pH and temperature not stated; high values mean tight binding; most listed sequences are background and not binding sites; double strand, one strand shown
row,Sequence,binding signal [E-score]
1,GTCTAAGA,-0.0128
2,ACTGGAAG,-0.0803
3,GAACCATA,0.0996
4,GAGTTTCC,-0.206
5,AGGCCACA,-0.317
6,AACTATCC,0.281
7,AACGATTG,-0.00666
8,GCGGATGA,0.171
9,GGACTCCC,-0.0674
10,GATCCACA,0.335
11,CACACCAA,0.0239
12,ACGGAGCT,-0.203
13,CACTCTAA,-0.162
14,CGGGTAGA,0.13
15,ACTCCCGC,0.0517
16,TAAGGCAA,-0.177
17,CCCCTACC,0.0656
18,CCTCTTTC,-0.159
19,ATAAAAAA,-0.172
20,CACAAATC,-0.161
21,CTGACCCC,0.012
22,GAAATCCC,-0.0215
23,AGAGAGTA,-0.102
24,AGCGTCGC,-0.24
25,GGGTGGAA,-0.0812

row,Sequence,binding signal [E-score]
1,CGCGCGGA,-0.0434
2,CCCTTTAG,-0.165
3,AAATTTCT,-0.387
4,CCACCCAA,-0.139
5,ACGACTGG,-0.146
6,AACAGTCT,-0.202
7,CATAATGG,-0.0983
8,AGCCGTTC,-0.0457
9,AAGCCACA,-0.242
10,GCCTATTA,0.0662
11,ATACATAT,0.354
12,CGAACTCG,-0.205
13,ATAATCAG,0.179
14,ACTTAGTC,-0.301
15,ACAGAAGG,-0.0876
16,CAGATTAA,0.217
17,GTGGCCAA,-0.194
18,AGGTGGTG,-0.102
19,AACTATAG,-0.0606
20,AGTGGCGC,-0.19
21,ACGGCACG,-0.081
22,ATACCCAG,0.382
23,CATAATCC,0.3
24,AGGTACGA,0.0442
25,AAAGGAAA,-0.208

row,Sequence,binding signal [E-score]
1,CCTTCGAC,-0.126
2,ATCCCCAA,0.294
3,ACGGCAAC,-0.0767
4,ACATGCAT,-0.0641
5,GTGGGAAA,-0.102
6,ATATGGAG,0.253
7,GACATTTA,-0.264
8,ACATTTAT,-0.224
9,CCCGAGTC,0.189
10,CAGTAAGA,0.0974
11,GGTGTTGA,0.258
12,GCGTCAAC,-0.231
13,CTCCTCAC,-0.167
14,AGTTGTCC,-0.194
15,ACTATTAT,0.0434
16,ACGCATCG,0.141
17,ATGGTAGA,-0.0112
18,CGCCAGCG,0.0107
19,GTGCGCGA,-0.182
20,CAGCATAG,-0.0445
21,GAAGCACA,-0.247
22,CAGTGGAA,-0.183
23,GACTGCTA,-0.317
24,ATGCTGAA,-0.215
25,CGTACGTC,-0.171

row,Sequence,binding signal [E-score]
1,AGTGCGCA,-0.212
2,ATGTTTGG,-0.107
3,TGCGAACA,-0.12
4,GGCTTGTA,-0.144
5,GGAGATAC,0.41
6,CGGGACAG,-0.0787
7,ATAACCTG,0.0653
8,CTTAAGGC,-0.141
9,AAACAAAG,-0.175
10,ATATCCGA,0.429
11,AGACCGAG,-0.0134
12,CGCCATAC,0.0225
13,GTGAGCAC,-0.0873
14,CAAGTGCG,-0.0204
15,AAGGGGAT,0.323
16,ACTGAACC,-0.00103
17,AGAGATAT,0.335
18,CTTAAGAA,-0.187
19,CTTGCTGC,-0.182
20,CCTCCCAA,-0.166
21,TAAGCGGA,-0.041
22,AATCTGTA,0.0595
23,CTGTTGCC,-0.293
24,ATTCTGTC,0.0206
25,AAGCTTTA,-0.129

row,Sequence,binding signal [E-score]
1,GGAAAACA,-0.102
2,ATATCCAG,0.373
3,GCACTAAC,-0.214
4,TAATGGTA,0.141
5,CACGAGGA,0.037
6,ATCGTCAT,0.22
7,CGTCGAAC,-0.28
8,GCAGTACC,0.0127
9,GCGGAACA,-0.16
10,TAACAGAA,-0.235
11,AGTAGGAA,-0.161
12,CGCTTACG,-0.159
13,CGTCCGGA,0.0517
14,CACAGTAG,-0.15
15,AGGTCAGG,-0.103
16,AGAGGGTA,0.267
17,AATCGCCC,-0.112
18,AACGATCA,0.207
19,AACTGTGT,-0.145
20,GAAGCTGA,0.0247
21,CTTAGTAA,-0.0628
22,CGGTTTAG,0.0351
23,CCACTCGG,-0.0298
24,CAAGGATA,0.342
25,AGAATCTA,-0.00801

row,Sequence,binding signal [E-score]
1,GGAAGTCA,-0.18
2,CTCGTGCC,-0.155
3,CGTAAAAG,-0.225
4,AAGCTTAT,0.0804
5,GACGCTCA,-0.139
6,GTTGGTAA,0.00492
7,CCCCGTAA,-0.0525
8,ATTTGCGA,-0.136
9,TCGGCGAA,0.115
10,AAAAAGAG,-0.181
11,CGGATGAC,0.173
12,ACGCGGCG,-0.0208
13,ATCGGTGC,0.194
14,GAATGTGA,-0.143
15,CGGCTTTA,-0.0572
16,CGTGTAAC,0.0592
17,GTCGAAAC,0.139
18,AGGGAGGA,0.0332
19,CGGAAAGA,-0.0696
20,AGGTGCAG,-0.142
21,GAGGATTA,0.118
22,GATATACA,0.384
23,CGGTACGC,-0.0526
24,ATGAGTGG,0.0241
25,AACTTCCA,-0.149

row,Sequence,binding signal [E-score]
1,CAAGCGTG,-0.0701
2,CCATATAC,0.29
3,AGTGGATA,0.338
4,ATCCACTA,0.263
5,ACTGGATC,0.33
6,CTCCTGGA,-0.14
7,GAACTCGC,-0.152
8,GCGTTCAC,-0.168
9,AGTTCTCC,-0.0263
10,CATCGGTA,0.086
11,ACGTATCA,0.474
12,CAGTCGAG,-0.173
13,AATTTGTA,-0.0679
14,AAATCTGG,-0.105
15,GGGCCATA,-0.0361
16,CTCAGGAG,-0.154
17,AGAACAGG,-0.059
18,CGCAGCCG,-0.159
19,CTCTAGGC,-0.114
20,GCGCAGCC,-0.252
21,TGCAGCAA,0.0497
22,CTCCCCCA,-0.11
23,GCGTAAGC,-0.134
24,CACCACGA,0.102
25,ACAAAATA,-0.179

row,Sequence,binding signal [E-score]
1,ATTGAAAT,-0.119
2,CATGAAAA,-0.264
3,CAATCTCC,0.0442
4,GCGTATTA,0.161
5,CAGGATAC,0.365
6,GGGCTAGA,0.209
7,ACAAATGT,-0.304
8,GGTTAGCA,-0.232
9,GCGTGAAC,-0.108
10,AGCGGTAT,0.343
11,AAATCGGC,-0.173
12,ATTTAAGC,-0.136
13,GAATCTAC,-0.112
14,TCGGATCA,0.438
15,AGCCTCGA,-0.168
16,AGCGTTCG,-0.294
17,CATCACAC,0.1
18,CGCGTCCG,-0.0858
19,CAAATCCG,0.0625
20,GCACATAA,-0.0061
21,CAGAAATA,0.0551
22,ATAAGCCA,0.0443
23,CATGTGCA,-0.154
24,GTGGCCTA,-0.0647
25,ATTGCCAA,-0.0122

row,Sequence,binding signal [E-score]
1,GGAGCCCA,-0.208
2,TCACTGAA,-0.131
3,AGTTACAG,-0.138
4,GGTTTGAA,-0.0148
5,CGGCTAGA,-0.00509
6,TACATTGA,-0.00202
7,CGGTTTCC,0.052
8,ACGCACGG,-0.0589
9,AGTGAACG,-0.15
10,GAGCAACC,-0.284
11,CCTTATCG,-0.0678
12,CGGTGTCA,0.471
13,CGCGAGCA,-0.0385
14,AACATATG,-0.00428
15,CGTAAGAG,-0.13
16,AAGGGATG,-0.00953
17,CTGCAAAC,-0.0982
18,ACCCTCAG,0.0125
19,ACAAGGAA,-0.183
